Several values for one entry are separate records, joined by “and”; a condition that tells them apart may be missing. Equal entries are not always repeated. The campaign covered roughly 280,000 compounds. About 540 (0.19%) were called active. This list was built around the results that the source calls inconclusive (neither active nor inactive); the mix of calls is not that of the screen. Calls follow the shape of the dose curve; as a rule, active = well fitted activation curve with a large enough effect; inconclusive = small, poorly fitted or top-dose-only effect; inactive = flat fitted curve, though single readings scatter. A potency beside an inconclusive call is a rough fit, not a confirmed value.
assay: Quantitative High-Throughput Screen for Regulators of Epigenetic Control; settings: murine LDR cells, GFP reporter derepression, 30 h; GFP activation: at 53.9 µM (top of the series); also: nearly all actives have a fitted effect of over 60% in size; as to GFP activation: % of control where 0% means no effect
Method in brief: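 Reporter derepression read as number of fluorescent GFP-positive objects, 20-120 um in size, counted by laser-scanning cytometer. Mouse LDR line with an epigenetically silenced CMV-GFP locus; compound incubation 30 h, 37 C.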
Potency is read from the fitted curve at half-maximal effect; tags tell the direction and shape of the fitted curve.

| Compound | Potency | GFP activation |
| --- | --- | --- |
| O=C(CSc1nc2c(oc3ccccc32)c(=O)n1Cc1ccco1)Nc1ccccc1Cl | inconclusive: 14.1 µM [activator, partial curve] |  |
| Cn1c(CSCc2ccc(Cl)cc2)n[nH]c1=S |  | inactive: -1.16% |
| Fc1ccc(-n2cc(-c3ccccc3)c3c(NN4CCOCC4)ncnc32)cc1 |  | inactive: 6.6% |
| O=C1Nc2ccccc2/C1=C/c1cnc(-c2ccccc2)[nH]1 | active: 22.4 µM |  |
| Cc1c(C(=O)N2CCCC2)oc2c1-c1nn(CC(=O)NCCCOC(C)C)cc1CC2 |  | inactive: 1.26% |
| CCOC(=O)/C(=C\c1cccnc1)C(=O)c1cc(C(C)=O)c(Nc2ccccc2)s1 | inconclusive: 5.62 µM [activator, single point] |  |
| COc1ccccc1N1CC(C)(C)C(=O)N(C(=O)c2ccc(Cl)cc2)C1=S |  | inactive: 0.0852% |
| CCN(CC)c1ccc(N=Cc2ccccc2[N+](=O)[O-])cc1 |  | inactive: 7.94% |
| O=c1/c(=C/c2ccc(O)cc2)sc2nc3cc(Br)cnc3n12 | inconclusive: 11.2 µM [activator, single point] |  |
| Fc1ccccc1-c1ccc(/C=N/Nc2nc3ccccc3[nH]2)o1 | inconclusive: 35.5 µM [activator, single point] |  |
| CCc1nnc(NS(=O)(=O)c2ccc(NC(=O)c3ccc(Cl)cc3)cc2)s1 |  | inactive: 1.28% |
| COc1cccc(/C=C/c2nc(C#N)c(NCCN(C)C)o2)c1 | inconclusive: 3.98 µM [activator, single point] |  |
| Cc1csc(N(C(=O)c2ccc(S(=O)(=O)N(C)C)cc2)c2ccccc2)n1 | inconclusive: 31.6 µM [activator, single point] |  |
| Cc1nc(SC2CC(=O)N(c3ccccc3)C2=O)n[nH]1 (stereo unspecified) |  | inactive: 7.65% |
| NC(=S)N/N=C/c1ccc(-c2cccc([N+](=O)[O-])c2)o1 | active: 15.8 µM |  |
| COc1ccc(-c2cc(C(=O)Nc3c(C)nn(Cc4ccc(Cl)cc4)c3C)no2)cc1 | inconclusive: 0.1 µM [activator, full curve, poor fit] |  |
| Cn1cc(/C=C(\C#N)C(=O)Nc2ncc(Cc3cccc(Cl)c3)s2)c2ccccc21 | inconclusive: 31.6 µM [activator, single point] |  |
| COc1ccc(/C=N/n2cnc3c([nH]c4ccc(F)cc43)c2=O)cc1CN1CCCC1 | inconclusive: 2.24 µM [activator, single point] |  |
| Cc1ccc(C)c(NC(=O)CSc2nnc(CCNC(=O)OC(C)(C)C)o2)c1 |  | inactive: -0.241% |
| CCOc1cc(CNC(=O)c2ccc(Cn3c(=O)c4cccn4c4cccnc43)cc2)ccc1OC | inconclusive: 22.4 µM [activator, single point] |  |
| COCCNC(=O)CN(c1cc(C(F)(F)F)ccc1Cl)S(C)(=O)=O |  | inactive: -8.77% |
| S=C(c1ccc(N2CCCC2)c(Br)c1)N1CCCCC1 |  | inactive: -0.452% |
| Cn1c(SCC(=O)N/N=C/C=C/c2ccco2)nc2ccccc21 |  | inactive: 3.44% |

| Compound | Potency | GFP activation |
| --- | --- | --- |
| CCn1c(O)c(N=NC(=S)NCC2CCCO2)c2ccccc21 (stereo unspecified) | inconclusive: 31.6 µM [activator, single point] |  |
| Cn1cc(C2=C(c3ccc(Cl)cc3Cl)C(=O)NC2=O)c2ccccc21 | active: 17.8 µM and active: 14.1 µM |  |
| COc1cc(/C=N/NC(=O)c2cccc([N+](=O)[O-])c2)ccc1OCc1ccccc1 |  | inactive: 1.05% |
| CN1CCN(/N=C/c2ccc(-c3ccc([N+](=O)[O-])cc3Cl)o2)CC1 | inconclusive: 14.1 µM [activator, single point] |  |
| O=C1N(Cc2ccccc2)c2ccc(Cl)cc2C1(O)c1c[nH]c2ccccc12 (stereo unspecified) | inconclusive: 3.98 µM [activator, single point] |  |
| Nc1nc2ccccc2n1C(=O)c1ccco1 |  | inactive: 0% |
| O=C(NCCn1cc(SCc2ccccc2Cl)c2ccccc21)c1cccs1 | inconclusive: 28.2 µM [activator, single point] |  |
| CC1(C)CC(=O)C(C=NCCN2CCN(C(=O)CCl)CC2)=C(O)C1 | inconclusive: 31.6 µM [activator, single point] |  |
| O=C(COc1ccccc1-c1ccccc1)NCCN1C(=O)S/C(=C\c2cccnc2)C1=O | inconclusive: 31.6 µM [activator, single point] |  |
| CCCC(=O)NC(c1ccc(OC)c(OC)c1)c1cc(Cl)c2cccnc2c1O (stereo unspecified) | inconclusive: 35.5 µM [activator, single point] |  |
| Cc1ccc(S(=O)(=O)Nc2cccc3cccnc23)cc1 | inconclusive: 5.62 µM [activator, single point] |  |
| COc1ccc(N/N=C(\C#N)C(=N)SCc2ccccc2)cc1 |  | inactive: -0.754% |
| Cc1c(/C=N/NC(=O)c2cccs2)c2ccccc2n1Cc1ccccc1Cl | inconclusive: 22.4 µM [activator, single point] |  |
| Cn1nc(-c2ccc(Cl)cc2)nc2c(=O)n(C)c(=O)nc1-2 | inconclusive: 3.98 µM [activator, full curve] |  |
| CCOc1ccccc1NC(=O)CCc1c(C)nc2c(c(C)nn2-c2ccccc2)c1C | inconclusive: 35.5 µM [activator, single point] |  |
| CCn1c(SCC(=O)N/N=C/C=C\c2ccco2)nc2ccccc21 |  | inactive: -1.05% |
| CC(C)c1ccc(C2CC(c3ccc(Br)cc3)=NN2C(N)=S)cc1 (stereo unspecified) | inconclusive: 31.6 µM [activator, single point] |  |
| O=S(=O)(c1ccc(-c2ccon2)s1)N1CCN(c2ccccn2)CC1 | inconclusive: 5.01 µM [activator, single point] |  |
| CC(C)NC(=O)/C(C#N)=C/c1cccc(NC(=O)c2ccccc2Cl)c1 | inconclusive: 25.1 µM [activator, single point] |  |
| Oc1c(C=Nc2ccccc2)sc(=S)n1Cc1ccccc1 | inconclusive: 25.1 µM [activator, single point] |  |
| CCn1c2ccccc2c2cc(N)ccc21 |  | inactive: 7.38% |
| O=C(CSc1cccc[n+]1[O-])c1ccc(Cl)cc1 | inconclusive: 28.2 µM [activator, single point] |  |
| COC(=O)c1c(NC(=S)Nc2ccc(F)cc2[N+](=O)[O-])sc2c1CCCCC2 | inconclusive: 35.5 µM [activator, single point] |  |

— PubChem BioAssay AID1865 (National Center for Advancing Translational Sciences (NCATS), 2009)
